Test results as given in ChEMBL document CHEMBL4888484, “Replenishing the malaria drug discovery pipeline: Screening and hit evaluation of the MMV Hit Generation Library 1 (HGL1) against asexual blood stage Plasmodium falciparum ,using a nano luciferase reporter read-out” (2022).
Among all 150,000 compounds or so, about 540 (0.36%) showed an effect of 50% or more. This is one part of the list.

These compounds were tested on Plasmodium falciparum (assay: Primary screen in NF54 nanoGlo assay, in single point, at 2uM, 72h; a lower Z score goes with more inhibition). Settings: timepoint 72 hour.
Type: functional, Erythrocyte
`O=c1[nH]ncc(N2CCCC2)c1/C=C/C1CCCCC1` was tested, and the “% Inhibition” value was -5% and the Z score was 0.72.
With `N#C[C@@H]1C(=O)N=C(N2CCN(C(c3ccccc3)c3ccccc3)CC2)NC12CCCC2` the “% Inhibition” value was -10% and the Z score was 1.33.
`Cc1c(-c2c(-c3ccccc3)ncn2CC[C@H](C)O)[nH]c2ccc(F)cc12` was tested, and the “% Inhibition” value was -14% and the Z score was 2.32.
In the case of `Cn1cc(C(=O)Nc2ccc3c(c2)NCCC3)cn1`, the “% Inhibition” value is reported as -16% and the Z score is reported as 2.43.
In the case of `Cc1ccc(Cn2c(=O)c3nn(C)cc3n3c(=O)n(Cc4nc(-c5cccc(C)c5)oc4C)nc23)cc1`, the “% Inhibition” value is reported as 1% and the Z score is reported as -0.12.
In the case of `CS(=O)(=O)c1ccc(Oc2ccc(C(F)(F)F)nn2)cc1`, the “% Inhibition” value is reported as -13% and the Z score is reported as 2.12.
With `Cc1ccsc1-c1nc(-c2ccc3nnn(C)c3c2)no1` the “% Inhibition” value was -14% and the Z score was 2.42.
With `CCCN(CC(=O)N(C)C)CC1CCC(C)CC1` (stereo not drawn) the “% Inhibition” value was -7% and the Z score was 0.85.
With `O=C(C[C@@H]1COC2(C1)CN(C(=O)c1cn[nH]c1)C2)N1CCCC1` the “% Inhibition” value was -1% and the Z score was 0.22.
For `CC(NC(=O)C1CC(=O)N(C)C1)c1ccc(N2CCN(C)CC2)cc1` (stereo not drawn), the “% Inhibition” value was -1% and the Z score was 0.19.
For `Cc1ccc(S(=O)(=O)N2CCC3(CC2)C[C@@H]3C(=O)O)c(C)c1`, the “% Inhibition” value was -3% and the Z score was 0.29.
For `CC(C)(C)c1ccc(CCC(N)=O)cc1`, the “% Inhibition” value was -8% and the Z score was 0.84.
In the case of `Cc1ccc(F)cc1NC(=O)C1CCC(NC(=O)OC(C)(C)C)C1` (stereo not drawn), the “% Inhibition” value is reported as -5% and the Z score is reported as 0.88.
For `CN(Cc1ncc[nH]1)C(=O)c1cc(COc2ccc3c(c2)OCO3)[nH]n1`, the “% Inhibition” value was -2% and the Z score was 0.29.
`COc1ccc(CCc2nc(NC(=O)[C@H]3CC(=O)N(C)C3)n[nH]2)cc1OC` was tested, and the “% Inhibition” value was 15% and the Z score was -2.27.
In the case of `CCc1nn(C)cc1C(=O)N1CCC[C@H](OC(=O)N(C)C)C1`, the “% Inhibition” value is reported as -12% and the Z score is reported as 1.57.
For `Cc1cc(C)nc(O[C@H]2CCCN(C(=O)c3ccc(S(=O)(=O)N4CCCC4)cc3)C2)n1`, the “% Inhibition” value was 14% and the Z score was -1.95.
`O=C(NCc1nccs1)C1(c2ccncc2)CCC1` was tested, and the “% Inhibition” value was -4% and the Z score was 0.63.
`Cc1nc(CC(=O)N2CCCc3cc(Cl)cc(Cl)c32)cs1` was tested, and the “% Inhibition” value was 4% and the Z score was -0.54.
`Cc1ccc(S(=O)(=O)Nc2c(S(=O)(=O)c3ccc(C)cc3)c3nc4ccccc4nc3n2C[C@H]2CCCO2)cc1` was tested, and the “% Inhibition” value was 48% and the Z score was -4.28.
`COCc1ccc(NC(=O)N2CCC[C@@H]2CCO)cc1C#N` was tested, and the “% Inhibition” value was 16% and the Z score was -1.56.
With `CCC(=O)NCCc1csc(C2CCN(C(=O)c3ccc(F)cc3)CC2)n1` the “% Inhibition” value was -3% and the Z score was 0.36.
`Fc1ccccc1-c1noc(N2CCN(c3ccccn3)CC2)n1` was tested, and the “% Inhibition” value was -24% and the Z score was 2.13.
`CCN1CCC(CC(=O)N[C@H](c2ccccn2)C(F)(F)F)CC1` was tested, and the “% Inhibition” value was -14% and the Z score was 1.94.
For `CCCN(CCCC(=O)O)C1C2CCOC2C1(C)C` (stereo not drawn), the “% Inhibition” value was 1% and the Z score was -0.08.
With `CC1(C)CCc2nnc([C@]3(C)CCCO3)n2C1` the “% Inhibition” value was -10% and the Z score was 1.54.
For `Cc1nc(N2CCCC2)c2c(C(=O)Nc3ccc(F)cc3)c(C)oc2n1`, the “% Inhibition” value was -6% and the Z score was 1.19.
In the case of `Cn1cc(S(=O)(=O)Nc2ccc(-c3ccccc3)cn2)cn1`, the “% Inhibition” value is reported as -9% and the Z score is reported as 1.02.
`O=C(c1cc2ccccc2cc1O)N1CCN(Cc2ccc(Cl)s2)CC1` was tested, and the “% Inhibition” value was -6% and the Z score was 0.77.
With `Cc1cccc(CN2CCC[C@@]3(CCN(C(=O)c4cccnc4C)C3)C2)c1` the “% Inhibition” value was -18% and the Z score was 2.38.
With `CS(=O)(=O)N1CCc2cc(C(=O)N3CCC(C#N)CC3)ccc21` the “% Inhibition” value was -22% and the Z score was 1.82.
In the case of `COCCO[C@@H](C)c1nnc2n1CC(C)(C)CC2`, the “% Inhibition” value is reported as -4% and the Z score is reported as 0.79.
In the case of `Cc1noc(-c2sccc2NC(=O)c2cccc(C(F)(F)F)c2)n1`, the “% Inhibition” value is reported as -5% and the Z score is reported as 1.02.
In the case of `CC[C@H](NC(=O)CCc1cnn(C)c1)c1ncnn1CC`, the “% Inhibition” value is reported as -3% and the Z score is reported as 0.59.
In the case of `COc1ccc(-n2nc(C)cc2NC(=O)N2CCC(F)(F)CC2)cc1`, the “% Inhibition” value is reported as 12% and the Z score is reported as -2.44.
For `Cc1cc(N2C(=O)Cn3cccc3[C@@H]2C(=O)NC2CCC(C)CC2)ccc1Br` (stereo partly drawn), the “% Inhibition” value was -6% and the Z score was 0.74.
`C[C@H](NC(=O)CC1CCCCC1)C(=O)N(CC#N)c1ccccc1` was tested, and the “% Inhibition” value was 2% and the Z score was -0.31.
With `CCc1ccc(CNC(=O)[C@H]2CCS(=O)(=O)C2)s1` the “% Inhibition” value was 9% and the Z score was -1.56.
`Cn1cc(C(=O)Nc2cccc3nsnc23)nn1` was tested, and the “% Inhibition” value was -7% and the Z score was 0.99.
In the case of `Cc1cccnc1C[C@H](C)n1cc(-c2cc(O)c3ccccc3n2)nn1`, the “% Inhibition” value is reported as 9% and the Z score is reported as -1.11.
In the case of `O=C(NC1CCCCCC1)c1csc(C(=O)NC2CCCC2)n1`, the “% Inhibition” value is reported as -13% and the Z score is reported as 2.42.
For `Cc1nc(C)c(-c2cc(C(=O)NCc3ccc(F)cc3)[nH]n2)s1`, the “% Inhibition” value was 17% and the Z score was -2.38.
With `O=C(CCn1cncn1)NCC1CN(S(=O)(=O)c2ccccc2)C2CCN1C2` (stereo not drawn) the “% Inhibition” value was -7% and the Z score was 0.77.
`O=C(Nc1cccnc1)[C@H](Cc1ccccc1)NC(=O)N1CCCC1` was tested, and the “% Inhibition” value was -7% and the Z score was 0.87.
`N#Cc1cc(F)c(N2CC[C@H](O)C2)c(F)c1` was tested, and the “% Inhibition” value was -8% and the Z score was 1.31.
For `CCc1nc(-c2ccc(-c3noc(CCNS(=O)(=O)c4ccc(C)cc4)n3)cc2)cs1`, the “% Inhibition” value was -16% and the Z score was 1.63.
`O=S(=O)(CCC1CCCCC1)NC[C@H]1CCCO1` was tested, and the “% Inhibition” value was 24% and the Z score was -2.73.
In the case of `CN(C)c1nc(CN2Cc3ccccc3C[C@@H]2C(=O)NC2CC2)ns1`, the “% Inhibition” value is reported as -1% and the Z score is reported as 0.19.
In the case of `Cc1ccc(C(=O)c2oc3ccccc3c2NC(=O)c2cc(-c3ccccc3)on2)cc1F`, the “% Inhibition” value is reported as 12% and the Z score is reported as -1.37.
`Cc1noc(C)c1CCC(=O)N1CC(C)OC(C)C1` (stereo not drawn) was tested, and the “% Inhibition” value was -1% and the Z score was 0.1.
For `CC(C)[C@H]1CCc2[nH]c(=O)c(-c3noc(-c4ccn(C)c(=O)c4)n3)cc2C1`, the “% Inhibition” value was -13% and the Z score was 1.61.
With `CC1CC(NC2CC3(CCCCC3)C2)c2nccn21` (stereo not drawn) the “% Inhibition” value was 4% and the Z score was -0.39.
`Cc1ccc(O)c(CN[C@H]2COC[C@H]2n2ccnn2)n1` was tested, and the “% Inhibition” value was -4% and the Z score was 0.61.
`Cc1ccc(-c2ncc(CNCCCN3CCCO[C@@H](C)C3)s2)o1` was tested, and the “% Inhibition” value was -9% and the Z score was 1.05.
